# Test results as given in article PMC4336329 (PLoS ONE, 2015).
# Screen size: about 310,000 compounds; about 2,200 (0.71%) showed an effect of 50% or more. The effect is printed as a negative number. The list shows a part of the results.
# Molecular target: human ether-à-go-go-related gene (hERG) potassium channel (human, UniProt Q12809)
# Experiment: primary screen, population patch clamp on CHO cells stably expressing hERG
# Chain of human ether-à-go-go-related gene (hERG) potassium channel (Q12809 whole entry, looked up): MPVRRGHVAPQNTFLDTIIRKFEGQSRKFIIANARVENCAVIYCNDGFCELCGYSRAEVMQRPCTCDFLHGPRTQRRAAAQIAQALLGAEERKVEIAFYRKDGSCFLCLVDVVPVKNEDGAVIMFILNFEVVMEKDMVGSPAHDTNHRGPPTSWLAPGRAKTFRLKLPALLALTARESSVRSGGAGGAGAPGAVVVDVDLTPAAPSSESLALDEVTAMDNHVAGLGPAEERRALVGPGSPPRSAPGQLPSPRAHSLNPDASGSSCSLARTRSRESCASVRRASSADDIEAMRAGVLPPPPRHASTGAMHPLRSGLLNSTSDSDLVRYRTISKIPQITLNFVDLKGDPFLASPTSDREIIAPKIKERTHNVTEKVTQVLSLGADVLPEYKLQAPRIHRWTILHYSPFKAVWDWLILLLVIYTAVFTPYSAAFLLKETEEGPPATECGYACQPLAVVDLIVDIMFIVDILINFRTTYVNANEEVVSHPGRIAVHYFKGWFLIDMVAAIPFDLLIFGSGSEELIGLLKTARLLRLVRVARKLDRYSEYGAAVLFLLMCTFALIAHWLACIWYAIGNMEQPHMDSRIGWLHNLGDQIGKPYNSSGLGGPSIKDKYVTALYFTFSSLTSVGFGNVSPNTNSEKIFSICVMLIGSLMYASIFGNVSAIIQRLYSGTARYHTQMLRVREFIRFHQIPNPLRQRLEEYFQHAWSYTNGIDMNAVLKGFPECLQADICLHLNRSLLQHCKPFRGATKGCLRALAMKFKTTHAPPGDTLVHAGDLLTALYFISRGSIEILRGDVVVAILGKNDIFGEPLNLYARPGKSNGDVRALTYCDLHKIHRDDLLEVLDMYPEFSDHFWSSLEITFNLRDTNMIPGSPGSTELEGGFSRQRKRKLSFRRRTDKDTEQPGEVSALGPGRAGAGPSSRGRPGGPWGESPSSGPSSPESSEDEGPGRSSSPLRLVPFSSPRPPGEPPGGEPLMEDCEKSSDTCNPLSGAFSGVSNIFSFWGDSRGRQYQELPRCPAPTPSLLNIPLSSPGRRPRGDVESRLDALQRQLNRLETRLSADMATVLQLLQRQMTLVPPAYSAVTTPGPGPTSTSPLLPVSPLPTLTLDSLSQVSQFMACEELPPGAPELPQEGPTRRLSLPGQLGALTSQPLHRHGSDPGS
row,Compound,"hERG current change (%, negative = inhibition) at 1uM [%]"
1,Cl.O=C(/C=C/c1cn(-c2ccccc2)nc1-c1cccnc1)NCCN1CCOCC1,12
2,COc1ccc(NC(=O)CN2CCCCCC2)cc1OC,7.92
3,CCOC(=O)Nc1ccc(=O)n(Cc2c(Cl)cccc2Cl)c1,6.44
4,Cc1oc2cc(O)cc(C)c2c(=O)c1-c1cnn(-c2ccccc2)c1,8.07
5,COc1ccccc1C1CC(c2ccc(NS(C)(=O)=O)cc2)=NN1C(=O)c1ccccc1 (stereo not drawn),-6.92
6,CC(=O)Nc1ccc(S(=O)(=O)n2nc(-c3ccc(C)cc3)nc2N)cc1,15.1
7,CN1C(C(=O)N2CCC3(CC2)OCCO3)=CC(c2ccc(F)cc2)=NS1(=O)=O,12.1
8,CCOC(=O)NN1C(=O)c2ccccc2NC1c1ccccn1 (stereo not drawn),11.9
9,Cc1ccc(C)c(S(=O)(=O)N2CCC3(CC2)OCCO3)c1,10.5
10,O=C(CO/N=C/c1ccc(OC(F)F)cc1)NCc1ccc(F)cc1,-52
11,COc1ccc(CCNC(=O)CS(=O)(=O)c2cn(CC(=O)N3CCCC3)c3ccccc23)cc1OC,12.8
12,CCOC(=O)N1CCN(C(=O)CSCC(=O)N=c2sc3ccccc3n2C)CC1,-3.08
13,Cl.N=c1c2c(n(Cc3cccc(Cl)c3)c3c1CCC3)CCCC2,10.2
14,CC1CN(CC(=O)Nc2ccc(S(N)(=O)=O)cc2)CC(C)O1 (stereo not drawn),-13.5
15,CCCCOc1ccc(/C=N/NC(=O)c2csc(C)c2C)cc1,14.7
16,CCCNc1nc(=S)n(-c2ccccc2)c(C)c1C(C)=O,-2.97
17,CC(C)CCNC(=O)NC(=O)COc1c(F)c(F)cc(F)c1F,-7.44
18,COCCNC(=S)N(CCc1c(C)[nH]c2ccc(Cl)cc12)Cc1cccs1,23.7
19,CCc1cc(=O)oc2cc(OCC(=O)N3C[C@H]4C[C@@H](C3)c3cccc(=O)n3C4)c(Cl)cc12,13
20,CC(=O)c1ccccc1NC(=O)COC(=O)Cc1cccc(C(F)(F)F)c1,-22.6
21,Cc1cc(C)c(Cn2ncn(-c3ccc(Br)cc3)c2=O)c(C)c1,11.8
22,O=C(CCn1nc(-c2ccc(Cl)cc2)ccc1=O)N1CCN(c2ccccc2)CC1,1.15
23,O=C(O)CC(c1ccc(OC2CCCC2)cc1)N1C(=O)c2ccccc2C1=O (stereo not drawn),12.5
24,COc1ccc(NS(=O)(=O)c2cn(C)cn2)cc1OC,16.4
